What all share (test): Primary Screen for Target Class Profiling of Small Molecule Inhibitors of Methyltransferases
Assay [1] has as its target Glycine N-methyltransferase (Homo sapiens) (UniProt Q14749). As to conditions: purified enzyme, MTase-Glo SAH luminescence; measured here: GNMT inhibition; at 40 µM; stronger effect = lower value. The source says: (§1) PI: Matthew D. Hall Ph.D. and Quinlin M. Hanson Ph.D.
(§2) National Center for Advancing Translational Sciences (NCATS)
(§3) National Institute of Health (NIH), Rockville, MD
(§4) Target class profiling (TCP) is a chemical biology approach amenable to investigating understudied biological targets. TCP is achieved by developing a generalizable assay platform and applying it to screen a curated set of compound libraries against representative members of a target class. Small molecule methyltransferases (SMMTase) are a subclass of methyltransferase that act on metabolites to modulate signaling pathways, metabolize xenobiotics, or balance the available methyl pool. We screened four curated libraries totaling 27,574 unique compounds against the SMMTases nicotinamide N-methyltransferase (NNMT), phenylethanolamine N-methyltransferase (PNMT), histamine N-methyltransferase (HNMT), glycine N-methyltransferase (GNMT), catechol O-methyltransferase (COMT), and guanidinoacetate N-methyltransferase (GAMT). The data generated by this TCP can be leveraged for informed tool molecule development. For example, in the associated publication we identified a chemotype of HNMT-selective inhibitors. Additionally, we identified a putative SMMTase-selective inhibitor with potential as a tool molecule for studying broader methyltransferase biology.
(§5) High-through put screening assays were developed at the National Center for Advancing Translational Science (NCATS) for the enzymes NNMT, PNMT, HNMT, GNMT, COMT, and GAMT. Enzymatic activity was measured as a function of SAM cofactor conversion using the MTase Glo kit (Promega) for all enzymes. All assays were performed in 1536-well format with substrates and SAM concentrations at KM values. Enzyme concentration and assay timing were optimized for 10-20% SAM conversion. Initial screening of 27,574 compounds was done as single-point assays using the highest compound concentration (40 uM). […] These compounds were replated in 11-point dose response and assayed against NNMT, PNMT, HNMT, GNMT, COMT, GAMT, and a counter-assay. The IC50 and efficacy (maximal response) values were determined for each dose-response curve. These values are also accounted for in the area under the curve (AUC) values.
(§6) PROTOCOL TABLE (as described by Inglese J, Shamu CE and Guy RK. 2007)
(§7) SEQUENCE No. (e.g., 1, 2, 3, etc.); […] (e.g., Cells, Incubation, Reagent, etc.); VALUE; DESCRIPTION.
(§8) 1; Reagent; 2 uL; SMMTase Enzyme (2x) in reaction buffer, columns 1- 48.
(§9) 2; Reagent; 1 uL; SAM (4x) in reaction buffer, columns 1-48.
(§10) 3; Controls; 23 nL; DMSO in column 4; sinefungin in DMSO (0 uM - 40 uM) in 7-point 1:2 dilution series (n = 2) in column 2.
(§11) 4; Compounds; 23 nL; Columns 5-48.
(§12) 5; Reagent; 1 uL; Substrate (4x) in reaction buffer, columns 2-48.
(§13) 6; Time; 20-30 min; Incubation.
(§14) 7; Reagent; 1 uL; MTase-Glo reagent (5X), columns 1-48.
(§15) 8; Time; 30 min; Incubation.
(§16) 9; Reagent; 5 uL; MTase-Glo Detection reagent, columns 1-48.
(§17) 10; Time; 30 min; Incubation, luminescence evolution.
(§18) 11; Detection; Luminescence; ViewLux uHTS Microplate Imager (PerkinElmer).
(§19) NOTES (numbers refer to Sequence numbers above)
(§20) 1, 2, 5. White Medium Binding Greiner 1536-well plates (Cat #789175-F, Greiner Bio-One, Monroe, NC); Reaction buffer: 50 mM Tris, pH 8.0, 3 mM MgCl2, 1 mM EDTA, 50 mM NaCl, 1 mM DTT, and 0.1 mg/mL BSA. Evaporation was prevented by covering assay plates with metal lids containing holes to allow gas diffusion.
(§21) 1. Six SMMTase were profiled: HNMT, GNMT, PNMT, COMT, NNMT, GAMT
(§22) 5. The corresponding substrate was used for each enzyme: HNMT - 5.3 uM Histamine; GNMT - >500 uM Glycine; PNMT - 16.2 uM Norephinephrine; COMT - 13.7 uM Norephinephrine; NNMT - 3.8 uM Nicotinamide; GAMT - 2.5 uM Guanidinoacetate.6, 8, 10. Room temperature
(§23) 6. Final reaction conditions: 10 nM COMT, 5 uM SAM, 15 uM norepinephrine, 50 mM Tris, pH 8.0, 3 mM MgCl2, 1 mM EDTA, 50 mM NaCl, 1 mM DTT, and 0.1 mg/mL BSA; refer to tables 2 and S1 for specific timing.
8. […]

Assay [2] addresses Guanidinoacetate N-methyltransferase (Homo sapiens) (UniProt Q14353). The note with it: purified enzyme, MTase-Glo SAH luminescence; measured here: GAMT inhibition; at 40 µM; stronger effect = lower value.
Excerpt: as §1, §2, §3, §4, §5, §6, §7, §8, §9, §10, §11, §12, §13, §14, §15, §16, §17, §18, §19, §20, §21, §22, §23
8. […]

In assay [3] the target is Histamine N-methyltransferase (Homo sapiens) (UniProt P50135). As to conditions: purified enzyme, MTase-Glo SAH luminescence; measured here: HNMT inhibition; at 40 µM; stronger effect = lower value.
Excerpt: as §1, §2, §3, §4, §5, §6, §7, §8, §9, §10, §11, §12, §13, §14, §15, §16, §17, §18, §19, §20, §21, §22, §23
8. […]

Assay [4] deals with Nicotinamide N-methyltransferase (Homo sapiens) (UniProt P40261). The note with it: purified enzyme, MTase-Glo SAH luminescence; measured here: NNMT inhibition; at 40 µM; stronger effect = lower value.
Excerpt: as §1, §2, §3, §4, §5, §6, §7, §8, §9, §10, §11, §12, §13, §14, §15, §16, §17, §18, §19, §20, §21, §22, §23
8. […]

For assay [5], the target named is Phenylethanolamine N-methyltransferase (Homo sapiens) (UniProt P11086). As to conditions: purified enzyme, MTase-Glo SAH luminescence; measured here: PNMT inhibition; at 40 µM; stronger effect = lower value.
Excerpt: as §1, §2, §3, §4, §5, §6, §7, §8, §9, §10, §11, §12, §13, §14, §15, §16, §17, §18, §19, §20, §21, §22, §23
8. […]

This passage reports activity change, negative = inhibition results from PubChem BioAssay AID1745853 (National Center for Advancing Translational Sciences (NCATS), 2022).

“And” between values parts separate entries of the source, which are not always exact repeats. Equal entries are not always repeated. This is one part of the list. These are further read-outs of the screen, such as a control signal, another cell line or another target. No call is given for them.
% is scaled to controls: 0 for no effect and ±100 for the full control effect.

Take `CC(N)=NCCCC[C@@H](N)C(=O)O`: the activity change, negative = inhibition was 2.45% in assay [1]; 9.28% in assay [2]; 6.41% in assay [3]; -5.33% in assay [4]; 1.39% in assay [5].
For `CC(C)N(CCCNC(=O)Nc1ccc(C(C)(C)C)cc1)C[C@H]1O[C@@H](n2ccc3c(N)ncnc32)[C@H](O)[C@@H]1O`, the activity change, negative = inhibition is -53.9% and -12.1% in assay [1]; -20.7% in assay [2]; -72.2% and -47.7% in assay [3]; -35.6% and -46.2% in assay [4]; -31.6% and -39.3% in assay [5].
In the case of `Cc1ccc(C(=O)CSc2nnc3n(C)c(=O)c4ccc(C(=O)NC5CCCC5)cc4n23)cc1`, the activity change, negative = inhibition in assay [1] is -1.6%; in assay [2] it was -2.74%; in assay [3], 3.56%; in assay [4], -3.11%; in assay [5], -4.67%.
On to `CCCn1c(=O)c2ccc(C(=O)NCC(C)C)cc2n2c(=O)n(CC(=O)Nc3ccccc3F)nc12`, for which the activity change, negative = inhibition was 4.69% in assay [1]; 0% in assay [2]; 6.93% in assay [3]; -2.67% in assay [4]; 5.14% in assay [5].
Taken in the same sequence, the figures for `CCOc1ccc(CNC(=O)c2cc3n(n2)CC(C)(C(=O)NCc2ccc(C)cc2)N(C)C3=O)cc1OC` (stereo not given) were 3.64%, 7.49%, 0.042%, 0.369% and 0.724%.
On the same counts, the results for `CC1(C(=O)NC2CCCCCCC2)Cn2c(cc3occc32)C(=O)N1CCN1CCCCCC1` (stereo not given) are 2.58%, 0%, -14.4%, -7.05% and -5.01%.
On the same counts, the results for `C/C=C(\C)C(=O)OC[C@H]1O[C@H](O[C@H]2O[C@H](CO)[C@@H](O)[C@H](O)[C@H]2O[C@@H]2O[C@H](CO)[C@@H](O)[C@H](O)[C@H]2O)[C@H](O[C@@H]2O[C@H](CO)[C@@H](O)[C@H](O)[C@H]2O)[C@@H](O)[C@@H]1O` are 0%, 9.18%, 11.7%, -2.6% and 7.84%.
As for `CC(C)c1ccc(NC(=O)Cn2c(=O)oc3cc(S(=O)(=O)N4CCCCC4)ccc32)cc1`, the activity change, negative = inhibition in assay [1] was -1.78%; in assay [2] it was 0%; in assay [3], 7.78%; in assay [4] it was 7.11%; in assay [5], -3.6%.
Turning to `CCN1CC(c2nc(-c3ccc4nc[nH]c4c3)no2)CCC1=O` (stereo not given), the activity change, negative = inhibition in assay [1] was -2.75%; in assay [2], -0.652%; in assay [3], -1.76%; in assay [4], -6.99%; in assay [5], -1.27%.
As to `Cc1cnc(-c2cccnc2)n1C1CCCN(CC2CCCCC2)C1` (stereo not given), the activity change, negative = inhibition in assay [1] was -5.42%; in assay [2], -3.91%; in assay [3] it was -5.37%; in assay [4] it was -7.1%; in assay [5], -17.7%.
Taken in the same sequence, the figures for `CCn1cc(CN(C)C(=O)CN2C(=O)C(Oc3ccc(F)cc3)C23CCCCC3)c(C)n1` (stereo not given) were -5.11%, -22%, -4.95%, -21% and -6.99%.
Taken in the same sequence, the figures for `CCC(C)NC(=O)Cn1nc2n(C(C)C)c(=O)c3ccc(C(=O)NC4CCCCC4)cc3n2c1=O` (stereo not given) were 4.61%, 0%, 10.8%, 7.87% and 4.58%.
On the same counts, the results for `Cc1ccc(CN2CC(=O)N(Cc3ccccc3)c3ccccc3S2(=O)=O)cc1` are 14.3%, 0%, 12.9%, 1.81% and 10.5%.
For `CNc1nccc(-c2cccnc2Oc2cc(C(=O)Nc3cccc(C(F)(F)F)c3)ccc2C)n1`, the activity change, negative = inhibition in assay [1] was -0.277%; in assay [2], -7.46%; in assay [3] it was 6.74%; in assay [4], -20.2%; in assay [5] it was 1.93%.
On the same counts, the results for `C[C@]12CC[C@@H]3c4ccc(O)cc4CC[C@H]3[C@@H]1CC[C@@H]2OC(=O)CCC1CCCC1` are -1.68%, -22.5%, 9.77%, -21.5% and -5.02%.
Taken in the same sequence, the figures for `COc1ccc(OC)c(CN2C(=O)c3ccc(-c4ccco4)n3CC2(C)C(=O)NCc2ccc(Cl)cc2)c1` (stereo not given) were -10.8%, -11.1%, 0.011%, -11.9% and -9.97%.
With `Cc1ccsc1C(=O)N1C[C@@H](F)C[C@H]1C(=O)N1CCCCC1`, the activity change, negative = inhibition in assay [1] was -2.77%; in assay [2], 2.6%; in assay [3], 2.3%; in assay [4] it was -0.982%; in assay [5], 1.8%.
On the same counts, the results for `CC(=O)N1CCN(C(=O)c2nc(-c3ccccc3)cs2)CC(O)C1` (stereo not given) are -5.15%, -0.426%, 0.782%, 0.798% and 18%.
